# According to ChEMBL document CHEMBL4888484, “Replenishing the malaria drug discovery pipeline: Screening and hit evaluation of the MMV Hit Generation Library 1 (HGL1) against asexual blood stage Plasmodium falciparum ,using a nano luciferase reporter read-out” (2022):
# Screen size: about 4,800 compounds; about 420 (8.8%) showed an effect of 50% or more. Some of the results follow.
# Tested on: Plasmodium falciparum
# Experiment: Confirmatory screen in NF54 nanoGlo assay, in single point, at 2uM, 72h
# Assay type: functional, Erythrocyte
# Settings: timepoint 72 hour
row,SMILES,% Inhibition
1,Cc1ccc(-c2noc(CCC(=O)NC[C@H]3CCCO3)n2)c(=O)n1C(C)C,-1%
2,C[C@@]12CCCCN1CCCc1c2[nH]c2ccccc12,-15%
3,COc1cccc(NC(=O)C2=Cc3cc(Cl)cc(OC)c3OC=C2)c1,5%
4,CCCCOc1ncccc1CNC(=O)N1CCn2nc(C)nc2C1,-7%
5,COc1cc(C)c2[nH]c3c(c(=O)c2c1)CN(CC(=O)Nc1ccc(C)c(F)c1)CC3,0%
6,COc1ccc(CNC(=O)Cn2c(=O)n(CCc3cccs3)c(=O)c3ccccc32)cc1,5%
7,Cc1nc2ccc(N(C)S(=O)(=O)c3cc(C(=O)O)cs3)cc2s1,-3%
8,CC1CCN(c2nccnc2Oc2ccc(C(=O)NCc3ccccc3Cl)cc2)CC1,59%
9,Cc1ncsc1CNc1nnc(CC(C)(C)C)o1,-3%
10,CCOC(=O)C(NC(=O)Cc1c(Cl)cccc1Cl)C(=O)OCC,3%
11,Cc1nsc(N2CCN(CC(C)O)C(C)C2)n1 (stereo not given),-4%
12,c1ccc(C2(c3nnc(-c4ccncc4)o3)CCOCC2)cc1,-2%
13,COc1ccc(C(=O)Nc2ccc3c(c2)C(=O)Nc2cccnc2O3)cc1OC,46%
14,COc1ccc2cccc(NC(=O)c3cc(-c4cc(OC)c(OC)c(OC)c4)n[nH]3)c2n1,64%
15,CC1(C2CCN(C(=O)c3c(Cl)cccc3Cl)CC2)OCCO1,4%
16,Cc1c(S(=O)(=O)NCCn2nc(C(F)(F)F)cc2C)cnn1C,6%
17,COCCCC(=O)Nc1cc(C)c(Br)cn1,2%
18,CC(C)[C@@H]1CCc2ccccc2N1Cc1nc(N)nc(N(C)C)n1,-4%
19,CC(C)[C@H](CN1CCOCC1)NC(=O)c1ncccn1,0%
20,O=C(NCCC1=CCCCC1)c1c(-c2ccccc2)nc2n1CCS2(=O)=O,-3%
21,CCCN1Cc2cccc(NS(=O)(=O)c3cc(C)ccc3Br)c2C1,2%
22,CC1(C)CCc2ccccc2C1NC(=O)C1CC(=O)N(c2nccs2)C1 (stereo not given),-9%
23,CCc1ccccc1C(=O)NC[C@H]1CC[C@H](CN)CC1,3%
24,COc1cc(CNCc2ccccn2)ccc1OCc1ccc(Cl)cc1Cl,3%
25,Cc1ccc(S(=O)(=O)Cc2nc3cc(C)c(C)cc3[nH]c2=O)cc1,-1%
26,Cc1cnc([C@H](C)NC(=O)c2conc2C(C)(C)N)s1,-1%
27,O=C1CCCN1CCc1nc(-c2cc(F)ccc2F)cs1,-7%

row,SMILES,% Inhibition
1,O=C(CN1CCN(Cc2ccccc2F)C1=O)NC1CCCCCCC1,-11%
2,COc1cccc(CCC(=O)N2CCN3CCC2C3)c1F (stereo not given),-15%
3,O=C(c1ccc(Cl)c(Cl)c1)N1CCCc2cc(S(=O)(=O)N3CCCC3)ccc21,-8%
4,CC(C)(C)OC(=O)NCC1CCCCC1C(F)(F)F (stereo not given),0%
5,Clc1ccc(-c2onc3c2CCCC3)cc1,2%
6,Cn1cc(Br)c(C(=O)N2c3ccnn3C(C(F)(F)F)CC2c2ccccc2)n1 (stereo not given),-2%
7,Cc1nn(-c2ccccn2)c(O)c1C(c1ccccc1)c1c(C)nn(-c2ccccn2)c1O,90%
8,Cc1ccc(-n2nc(N3CCN(C(=O)Cc4ccc(F)cc4)CC3)ccc2=O)cc1,4%
9,Cc1cc(C)n(C(=O)Cn2nc(C(F)F)cc2C)n1,4%
10,C[N+]12CCCCC1C(OC(=O)C1(c3ccccc3)CCCC1)CCC2 (stereo not given),96%
11,O=C(CN1C[C@@H](c2ccccc2)Oc2ccccc2C1=O)Nc1ccccc1,-16%
12,Cc1cc(C)c2c(C(=O)N3CCN(C(=O)[C@H](C)O)CC3)cc(C3CC3)nc2c1,-14%
13,CCn1cc(S(=O)(=O)N2CC(Oc3cccc(-c4nc(C)no4)c3)C2)cn1,2%
14,CCOC(=O)c1nc[nH]c1-n1nc(C)cc1C,-1%
15,Cc1cccc(NC(=O)C(=O)N(C)[C@H]2CCCc3c2cnn3C)c1F,-17%
16,Oc1ccc(-n2c(-c3ccccc3)ccc2-c2ccccc2)cc1,2%
17,CCOC(=O)CCn1cc(F)c(=O)[nH]c1=O,77%
18,CCCN1CCN(CC(=O)Nc2sccc2C#N)c2cc(F)ccc21,2%
19,CCS(=O)(=O)N1CCN(c2c(C)n(-c3ccccc3)c(=O)n(C)c2=O)CC1,2%
20,CC(CNC(=O)NCC(O)C1CC1)c1ccc(F)c(F)c1 (stereo not given),3%
21,COc1ccc(CC(=O)N2N=C(C)C[C@]2(O)c2cccnc2)cc1,45%
22,Cc1ccccc1CNC(=O)[C@H]1CCCN(c2nc3ccccc3[nH]c2=O)C1,-1%
23,COc1ccc(S(=O)(=O)Nc2c(C)ccc3nsnc23)cc1OC,4%
24,CCCNC(=O)C[C@H](C)CC(=O)NCCc1ccc(OC)c(OC)c1,4%
25,O=S(=O)(c1ccc(Br)cc1)n1ccc(C2CC2)n1,-2%
26,CC(C)N(CC(=O)Nc1nccs1)Cc1ccccn1,68%
27,Cc1ccc(-c2c[n+](-c3ccc(OC(F)F)cc3)c3n2CCCCC3)cc1,67%

row,SMILES,% Inhibition
1,CN(Cc1ccsc1)C(=O)c1cc2ccccc2[nH]1,35%
2,NC(=O)c1ccc(COc2ccc3c(c2)CCC3=O)cc1,5%
3,Nc1c(Br)cc(Br)c(Cl)c1Cl,-9%
4,N#CC1(CNC(=O)CNC(=O)C2C3CCCCC32)CC1 (stereo not given),0%
5,O=c1[nH]c2nc(N3CCC(N4CCCCC4)CC3)ncc2c(=O)n1-c1ccc2c(c1)OCO2,-9%
6,O=C(C1CCN(c2cncc3nnnn23)CC1)N1CCC(c2ccccc2)CC1,-4%
7,COCc1nsc(N2CCC(c3ccccc3)CC2C)n1 (stereo not given),1%
8,CC(C)(C)[C@H]1CCc2c(sc(NC(=O)C3(F)C(F)(F)C(F)(F)C(F)(F)C(F)(F)C3(F)F)c2C#N)C1,50%
9,Cc1cc(S(=O)(=O)NC(=O)c2ccnc(C3CCCC3)n2)c(C)s1,-2%
10,CC(C)(C)OC(=O)N1CCc2ncn(Cc3ccc(F)cc3)c(=O)c2C1,-7%
11,O=C(Nc1nccs1)N1CC(O)CC1CO (stereo not given),-16%
12,OC1CCC2CN(c3ncc(Cl)c(N4CC5CCC(O)C5C4)n3)CC12 (stereo not given),-4%
13,CC(=O)Nc1ccc(-c2cn3c4ccccc4ccc3[n+]2C)cc1,76%
14,CCN(C(=O)[C@H]1CCN(C)[C@@H](C)C1)C1CCCC1,6%
15,CCc1ccc2ncc(C(=O)c3ccc(Cl)cc3)c(O)c2c1,19%
16,CN(C)CCN(C)c1ccc(Br)cc1NCc1cncn1C,16%
17,CS(=O)(=O)N1CC[C@H](CC(=O)Nc2ccccc2)C1,-14%
18,CC[C@@H](CO)NC(=O)Nc1ccc(Cl)cc1,6%
19,Cc1c(-c2ccccc2OC(=O)c2ccccc2)cnn1-c1ccccc1,-4%
20,COc1ccccc1OCC(=O)Nc1ccccc1-n1cnnc1C,5%
21,Cc1nc2cc(-c3ccc(Cl)c(Cl)c3)nn2c(N)c1-c1ccccc1,-2%
22,CCc1ccc(O[C@@H](C)C(=O)OC)c(COc2ccc(-n3c(=O)cc(C(F)(F)F)n(C)c3=O)cc2)c1,-5%
23,COc1cccc(-c2nc(C)c(C(=O)Nc3nc(C(C)C)n[nH]3)s2)c1,74%
24,Cc1nnc2ccc(S(=O)(=O)N(CC#N)c3ccccc3)cn12,5%
25,C[C@@]1(C(=O)NCc2ccccc2)Cn2nc(-c3ccccc3)cc2C(=O)N1c1ccc2c(c1)OCCO2,58%
26,CC[C@H]1Cn2c(C(=O)NCc3ccc(C)cc3)cc3c(Cl)ccc(c32)O1,-12%
27,c1cc(-c2noc(C3CC3)n2)nc(N2CCNCC2)n1,-12%

row,SMILES,% Inhibition
1,O=C1Nc2ccccc2[C@@]12Nc1ccccc1CO2,4%
2,O=C(C1CC1c1ccccc1)N(c1ccc(F)cn1)C1CCOCC1 (stereo not given),3%
3,Cc1oc(=S)n2c1C[C@@H](c1ccccc1)N(Cc1ccccc1)C2,-15%
4,COc1cccc(CC(=O)N2CCC[C@@]3(C2)Nc2ccccc2N=C3NC(C)(C)C)c1,-1%
5,CCC(=O)N1CC[C@H](N(C(C)=O)C2CCOCC2)C1,-12%
6,CCc1sc(NC(=O)CC#N)nc1-c1ccc(Cc2ccccc2)cc1,-11%
7,CCn1c(=O)c(N2CCN(C(=O)Nc3ccc(OC)cc3OC)CC2)nc2cccnc21,-15%
8,CN(Cc1ccccc1)C(=O)C[C@H]1CCN(C(=O)NC2CCCC2)C1,-1%
9,C[n+]1ccc(-c2ncc(-c3ccccc3)o2)c2ccccc21,75%
10,CC1(C)CCC[C@@H]1NCc1nccc(N)n1,2%
11,O=C(Cc1c[nH]c2ccccc12)Nc1ccc(Cl)c2ncccc12,5%
12,O=C(c1cc(-c2ccco2)n[nH]1)N1CCC(N2CCC(Oc3ccccc3F)CC2)CC1,41%
13,CC[C@](C)(NCCc1c[nH]c2ccccc12)c1nnnn1CCOC,-2%
14,O=C(O)C1CC=CCC1C(=O)N1CCCCCC1 (stereo not given),2%
15,CC(C)N(C)S(=O)(=O)Nc1ccc(Br)cc1O,-2%
16,CCS(=O)(=O)c1ccc(N2CC[C@H](C(N)=O)C2)cc1,-1%
17,CCCNCc1cc(Cl)ccc1OC,-3%
18,Cc1cccc(CNc2cc([C@H]3C[C@@H](N)C3)nc(N3CCCC3)n2)c1,22%
19,CC1CN(c2nc(-c3ccccc3)nnc2-c2ccccc2)CC(C)O1 (stereo not given),9%
20,Cc1cc(C)c(C)c(S(=O)(=O)N2CCn3c(nnc3[C@H]3CCN(C(C)C)C3)C2)c1C,-4%
21,O=C(Nc1ccc(N2CCn3c(nc4ccccc43)C2)cc1)c1ccc(F)cc1,9%
22,Cn1c(N2CCC[C@H]2c2ccc3c(c2)OCCCO3)c(C#N)c(=O)n(C)c1=O,5%
23,Cc1ccc(C)c(-n2cnc(=O)n2[C@H]2CCN(C3CC3)C2=O)c1,46%
24,Cc1nc2ccnn2cc1C(=O)Nc1ccc(CCC(C)C)cn1,-5%
